The source of these data is the supplement of paper PMC9513381.

The labels stand for the following.
B1: B2116 (protein)
chain 1: QVQLVQSGAEVKKPGSSVKVSCKASGGTFSNYGISWVRQAPGQGLEWIGGIVPIFVSAKYAQKFQGRVTITADRLTTTAYMELSSLRSDDTAVYYCARATDETILHKIDCGGDCHFYYAMDVWGQGTTVTVSS
chain 2: EIVLTQSPGTLSLSPGERATLSCRASQSVSHTYLAWYQQKPGQAPGLLIYGASSRATGIPDRFSGSGSGADFTLTISRLEPEDFAVYYCQLYGSSPVTFGQGTKVEIK
B2: B2061 (protein)
chain 1: QVQLVESGGGVVQPGRSLRLSCAASGFTFSSYGMHWVRQAPGKGLEWVAVIWYDGSGKHYADSAKGRFTISRDNSKNTLYLQMNSLRAEDTAVYYCARDESGSYPVSWFDPWGQGTLVTVSS
chain 2: DIQMTQSPSSLSASVGDRVTITCRASQSIGIYLNWYQQRPGKGPNLLIYAASSLQSGVPSRFSGSGSGTEFTLTISSLQPEDFATYYCQQSYNTPPWTFGQGTKVEIK
B3: B2065 (protein)
chain 1: EVQLVESGGGLAQPGGSLRLSCGGSGFTFGSHDMHWVRQATGKGLEWVAAITTAGDTYYSGSAKGRFTISRDNAKNSFYLQMNSLRGEDTAVYYCAFVSWNRYCSRSSCHGLGVWGQGTTVTVSS
chain 2: SYELTQSLSVSVALGQTATITCGGDNLRNRNVHWYQQRPGQAPVLILYRDYNRPSGIPERFSGSNSGNTATLTISRAQAGDEADYYCQVWDSDTGVVFGGGTKLTVL
B4: B2113 (protein)
chain 1: QVQLVQSGAEVKKPGASVKVSCKASGYTFSSYGISWVRQAPGQGLEWMGWISGYSGNTKYAQKLQGRVTMTTDTSTSTAYMELRSLRSDDTAVYYCARNSGSYYLGVEYWGQGALVTVSS
chain 2: NFMLTQPHSVSESPGKTVTISCTGSSGSIASNYVQWYQQRPGSAPTTVIYEDNQRPSGVPDRFSGSIDSSSNSASLTISGLKTEDEADYYCQSSDSGNWVFGGGTKLTVL
B5: B2066 (protein)
chain 1: EVQLVESGGGLVQPGGSLRLSCAASGFTFSTYDMHWVRQATGKGLEWVSTIGTSGDTYYLDSVKGRFTISRENAKNSLYLQMNSLRAEDTAVYYCARGHATSMVTVFDFWGQGSLVTVSS
chain 2: DIQMTQSPSSLSASVGDRVTITCRASQSISTYLNWYQQKPGKAPKLLIYAASSLHSGVPSRFSGRGSGRDFTLTISSLQPEDFATYFCQQSYINPHVTFGGGTKVEIK
B6: B2112 (protein)
chain 1: EVQLVQSGAEVKKPGESLKISCKGSGYSFISYWIGWVRQMPGKGLEWMGIIHPQESETRGSQSFQGQVTISADKSIITAYLQWSSLKASDTAMYYCVRYSSSPSGWFDPWGQGTLVTVSS
chain 2: QSVLTQPPSASGTPGQRVTISCSGSSSNIGGNAVSWYQQLPRTAPKLLIYNNNQRPSGVPDRFSGSKSGTSASLAISGLQSEDEADYYCAAWDDSLNGVVFGGGTKLTVL
B7: B2060 (protein)
chain 1: QVQLVQSGAEVKKPGASVKVSCKASGNTFSVYYIHWVRQAPGQGLEWMGIFNPSGGSTTYAQKFQGRVTMTRDTSTSTVYMELSSLRSDDTAVYYCARGGLVPATREPFDIWGQGTMVTVSS
chain 2: DIQMTQSPSTLSASVGDRVTITCRASQSISYWLAWYQQKPGKAPKLLIYKASSLESGVPSRFSGSGSGTEFTLTISSLQPDDFATYFCQQYNSFPWTFGQGTKVEIK
B8: B2064 (protein)
chain 1: QVQLVQSGAEVKKPGSSVNVSCKASGGTLNIYTFSWVRQAPGQGLEWVGTIVPLVGKANYPHKFQGRVTITADKSTSTVNMELSSLRSEDTAVYYCASEVLDNLRDGYNFWGQGTLVTVSS
chain 2: DIQMTQSPSSLSASVGDRVTITCRASQSVSSYLNWYQQKPGKAPKLLIYAVSSLQSGVPSRFSGSGSGTDFTLTISSLQPEDFATYYCQQTYNTLTFGGGTKVEIK
B9: B2063 (protein)
chain 1: EVQLVQSGAEVKKPGESLRISCKGSGYPFTTFWITWVRQRPGKGLEWMGRIDPSDSETDYSPSFQGHVTISTDKSINTAYLHWSSLKASDTAMYYCATAVSPGTGWFAPWGQGTLVTVSS
chain 2: SYVLTQPPSVSVAPGKTARITCGGDKIGSKSVHWYQQKPGQAPVLVIYYDSDRPSGIPERFSGSNSGNTATLTISRVEAGDEADYYCQVWDSDSAVFGTGTKVSVL
B10: B2006 (protein)
chain 1: EVQLVQSGAEVKKPGESLKISCKGFGSSFTNYWIGWVRQMPGKGLEWMGSVYAGDSDTRYSPSFQGQVTVSADKSITTAYLQWTSLKASDTAMYFCARASQGNYFDFWGQGTLVTVSS
chain 2: DIQMTQSPSTLSASVGDRVTITCRASQSISRWLAWYQQKPGKAPKLLIYDASILESGVPSRFSGSGSGTDFTLTISSLQPDDYATYYCQQFYSNLYTFGQGTKLEIK
B11: B2058 (protein)
chain 1: EVQLVESGGGLIQPGGSLRLSCAASGLTVSSNYMSWVRQAPGKGLEWVSVIYPGGSTFYADSVKGRFTISRDNSKNTLYLQLNSLRADDTAVYFCARGDGYTDYYYGLDVWGQGTTVTVSS
chain 2: DIQLTQSPSSLSASVGDRVTITCRASQSISSYLNWYQQKPGKAPKLLIYAASSLQSGVPSRFSGSGSGTDFTLTISSLQPEDFATYYCQQRGFGQGTKVEIK
B12: B2059 (protein)
chain 1: QVQLQESGPGLVKPSQTLSLTCTVSGDSISRGGFYWNWIRQHPGKGLEWIGNIYYSGSTYYNPSLKSRVTISVDTSKNQFSLKLNSVTAADTAVYYCARDYGGNAQQFSFWGQGTLVTVSS
chain 2: IRMTQSPSSLSASVGDRVTITCQASQDINNYLNWYQQKPGKAPKLLIYDASNLETGVPSRFTGSGSGTDFTFTISSLQPEDIATYYCQHYHNFPLTFGGGTKVEIK
B13: B2117 (protein)
chain 1: QVQLVQSGADVRQPGASVKVSCKASGYIFPNYGISWVRQAPGQGLEWMGWISAHDDQTNYAQRLQGRITMTTDPSTSTAYMELRGLRSDDTAMYYCAREGAGAFFAWSSTWHGERAAFDIWGQGTMVTVSS
chain 2: EIVLTQSPGTLSLSPGERAALSCRASQSVTRSYLAWYQQKPGQAPRLLIFDASSRATGIPDRFSGSASGTDFTLTISRLEPEDFAVYYCQLYGTSSTFGQGTKVEIK
B14: B2119 (protein)
chain 1: VQLVESGGGVVQPGRSLRLSCAASGFTFRNYGMHWVRQAPGKGLEWVAMISYDGDNKYYVDSAKGRFTISRDNSKNTLYLQMSSLRADDTAVYYCAKGVGPYCSGGSCYPGALDYWGQGTLVTVSS
chain 2: IRMTQSPSSLSASVGDRVTITCQASQDIRNYVNWYQQHPGKAPKLLIYDASNLEAGVPSRFSGSGSGTDFTFTISGLQPEDFATYYCQQYDNYPPFTFGGGTKVEIK

Recombinant human monoclonal antibodies (heavy:light variable regions). ELISA EC50 on the named antigen, from 10 µg/ml down; IC50 / IC90 against spike pseudovirus on 293T-ACE2 cells, 48 h; lower = stronger. Calls: IC50 above 1,000 ng/ml = non-neutralizing; EC50 above 1,000 ng/ml = non-binder. The source prints 1000 for neutralization that was not reached; it is given as >1000 ng/ml. Only binders of the Wuhan-Hu-1 domain have neutralization values. Some results are limits rather than exact numbers.

In the first experiment the target is SARS-CoV-2 Wuhan-Hu-1 spike pseudovirus. Nature of the experiment: pseudovirus neutralization IC50; higher = weaker neutralization. The procedure:
(§1)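 Single-round luciferase reporter pseudovirus mixed with antibody dilutions and put on 293T-ACE2 cells for 48 h; signal relative to no-antibody wells, four-parameter fit.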
Regarding B1, the “pseudovirus neutralization IC50” value stood at 2.63 ng/mL.
Regarding B2, the “pseudovirus neutralization IC50” value was 58 ng/mL.
Still for that read-out and setting: for B3 the value was 1.76 ng/mL; for B4, 600 ng/mL; for B5, more than 1000 ng/mL.
Same read-out and setting: the same measure for B6: more than 1000 ng/mL.
For the molecule B7, the “pseudovirus neutralization IC50” value was more than 1000 ng/mL.
On the same count and under the same terms, for B8 the value was 12.7 ng/mL.
With B9, the “pseudovirus neutralization IC50” value is 162 ng/mL.
For B10, the “pseudovirus neutralization IC50” value is more than 1000 ng/mL.
With B11, the “pseudovirus neutralization IC50” value was determined as 6.34 ng/mL.
Same read-out and setting: the same measure for B12: more than 1000 ng/mL.
For the molecule B13, the “pseudovirus neutralization IC50” value was 11.5 ng/mL.
For the molecule B14, the “pseudovirus neutralization IC50” value is more than 1000 ng/mL.

For a further experiment the target is unchanged. The experiment can be described thus: pseudovirus neutralization IC90; higher = weaker neutralization. The procedure:
as §1
B1: the “pseudovirus neutralization IC90” value came out at 19.1 ng/mL.
As for B2, the “pseudovirus neutralization IC90” value turned out to be 570 ng/mL.
Regarding B3, the “pseudovirus neutralization IC90” value worked out at 15 ng/mL.
For the molecule B4, the “pseudovirus neutralization IC90” value is more than 1000 ng/mL.
On to B5, for which the “pseudovirus neutralization IC90” value was more than 1000 ng/mL.
Same read-out and setting: for B6 the value was more than 1000 ng/mL; for B7, more than 1000 ng/mL; for B8, 175 ng/mL.
Take B9: the “pseudovirus neutralization IC90” value was more than 1000 ng/mL.
Same read-out and setting: the same measure for B10: more than 1000 ng/mL; for B11: 94.4 ng/mL; for B12: more than 1000 ng/mL.
Same read-out and setting: for B13 the value was 52.8 ng/mL; for B14, more than 1000 ng/mL.

For another experiment, the target named is SARS-CoV-2 Delta (B.1.617.2) spike RBD. Nature of the experiment: ELISA binding EC50; higher = weaker binding; ELISA of recombinant human antibody on coated antigen, from 10 µg/ml in fourfold dilutions; four-parameter fit. On the technique in general: ELISA stands for enzyme-linked immunosorbent assay.
As for B1, the “ELISA binding EC50” value is more than 1000 ng/mL.
On the same count and under the same terms, for B2 the value was 8.52 ng/mL.
For the molecule B3, the “ELISA binding EC50” value is 143 ng/mL.
The same measure, in the same setting: the same measure for B4: 170 ng/mL.
For B5, the “ELISA binding EC50” value came out at 14.5 ng/mL.
Still for that read-out and setting: the same measure for B6: more than 1000 ng/mL; for B7: 56 ng/mL; for B8: 1.89 ng/mL.
The same measure, in the same setting: the same measure for B9: 12.5 ng/mL.
For B10, the “ELISA binding EC50” value stood at 5.74 ng/mL.
Same read-out and setting: for B11 the value was 12.4 ng/mL.
Still for that read-out and setting: the same measure for B12: 9.13 ng/mL; for B13: 7.55 ng/mL.
The same measure, in the same setting: for B14 the value was 42.2 ng/mL.

Another experiment has as its target SARS-CoV-2 Omicron BA.1 spike protein. The description is as above.
B1: the “ELISA binding EC50” value was more than 1000 ng/mL.
As for B2, the “ELISA binding EC50” value came to 34.7 ng/mL.
Same read-out and setting: for B3 the value was 2.51 ng/mL; for B4, 362 ng/mL.
The same measure, in the same setting: for B5 the value was 13.3 ng/mL; for B6, 774 ng/mL.
For the molecule B7, the “ELISA binding EC50” value worked out at 22.4 ng/mL.
As for B8, the “ELISA binding EC50” value was 34.5 ng/mL.
Same read-out and setting: for B9 the value was 7.63 ng/mL.
As for B10, the “ELISA binding EC50” value came out at 9.08 ng/mL.
The same measure, in the same setting: the same measure for B11: 145 ng/mL; for B12: 5.36 ng/mL.
On the same count and under the same terms, for B13 the value was 60.7 ng/mL; for B14, 51.4 ng/mL.

A further experiment concerns the target SARS-CoV-2 Wuhan-Hu-1 spike receptor-binding domain. Described as above.
Turning to B1, the “ELISA binding EC50” value came out at 2.45 ng/mL.
Consider B2, for which the “ELISA binding EC50” value amounted to 2.9 ng/mL.
For B3, the “ELISA binding EC50” value was 2.71 ng/mL.
B4: the “ELISA binding EC50” value is 7.33 ng/mL.
As to B5, the “ELISA binding EC50” value came out at 7.72 ng/mL.
On the same count and under the same terms, the same measure for B6: 11.5 ng/mL; for B7: 7.79 ng/mL.
Same read-out and setting: for B8 the value was 9.91 ng/mL; for B9, 4.02 ng/mL.
For the molecule B10, the “ELISA binding EC50” value worked out at 2.22 ng/mL.
Same read-out and setting: for B11 the value was 1.85 ng/mL.
Same read-out and setting: the same measure for B12: 2.91 ng/mL.
Same read-out and setting: the same measure for B13: 3.99 ng/mL.
As for B14, the “ELISA binding EC50” value was determined as 1.76 ng/mL.
